Assay results reported in the RNAGym collection of RNA variant scans (doi:10.7554/elife.90254).
The source gives no read counts; variants with many changes may rest on few reads.

B1: LINE1-mini (parent)
chain: GGCAGAGCUCAACACAGCGUGGCAAAGUGGCUGUGGCUAGACUGCC

Variants of: B1
Assay: self-cleavage, relative activity (ratio to wild type); higher = more cleavage; in vitro, sequencing; the parent is a self-cleaving ribozyme

Row | Variant | self-cleavage
1 | GGCAGAACUCAAAACAGCGUAACAAAGUACCUGUGGCUAGACUGGC [G7A C13A G21A G22A G29A G30C C45G] | 0.28
2 | GGCAGAACUAAACACAGCGUGGCAAAGUGCCUGUGGAACGACUGCC [G7A C10A G30C C37A U38A A39C] | 0.01
3 | GGCAGAACUAAAUACAUCGUGGCAACGUGGCUGUAGCUAGACUGCC [G7A C10A C13U G17U A26C G35A] | 0.02
4 | GGCAGAACUCAACACGGCGUGGCAAACUGGCUGUGGCUAGACUGCC [G7A A16G G27C] | 0.09
5 | GGCAGAACUCAAGACAGCAUGGCAAAGUGGCAGUGGCUAGACUGCC [G7A C13G G19A U32A] | 0.31
6 | GGCAGAACUCAACACGGCGUGGCAAAGUGGCUGAGGCUAGACUGCC [G7A A16G U34A] | 0.01
7 | GGCAGAACUGAACACAGCGUGUCAAAGUUGCUGUAGCUAGACCGCC [G7A C10G G22U G29U G35A U43C] | 0.02
8 | GGCAGAACUCAACACAGCGUGGCACAGUGGCUGUGGCUAGACUGCA [G7A A25C C46A] | 0.03
9 | GGCAGAACUUUACACGGCGUGGCAAAGUGGCUGUGGCUAGACUGCC [G7A C10U A11U A16G] | 0.01
10 | GGCAGAACUCAACACAGCGUGGCAAGGUGGCAGUGACUAGACUGCC [G7A A26G U32A G36A] | 0.01
11 | GGCAGAACUCAACACAGCGUGGCACAGUGGCGGUGGCUAGACUGCC [G7A A25C U32G] | 0.06
12 | GGCAGAACUAAACACAGCGUGGCAAUGUGGCUGUGGCUAGACUGCC [G7A C10A A26U] | 0.09
13 | GGCAGAACUAAACACAGCGCGGUAAAGUGGCUGUGGCUAGACUGCC [G7A C10A U20C C23U] | 0.03
14 | GGCAGAAUUCAACACAGCGUGGCAAAGUGGCUGUGGCUAGACUGCG [G7A C8U C46G] | 0.26
15 | GGCAGAAAUCAACACAGCGUGGCUCAGUGGCUUUGGCUAGACUGCC [G7A C8A A24U A25C G33U] | 0.14
16 | GGCAGAACUCAAACCAGCGUGGCAAAGUGGCUGUGGCUAGACUGCC [G7A C13A A14C] | 0.07
17 | GGCAGAACUAAACAGAGCGUGGCAAAGUGGCGGUGGCUAGACUGCU [G7A C10A C15G U32G C46U] | 0.01
18 | GGCAGAAAUCAACACAGCGUAGCAAAGUGGCUGUGGCUAGACUGCC [G7A C8A G21A] | 1.05
19 | GGCAGAACUUAACACAGCGUCGCAAAGUGGCUGUGGCUAGACUGCC [G7A C10U G21C] | 0.03

Row | Variant | self-cleavage
20 | GGCAGAACUCAAAAAAGCGUGGCAAAGUUGAUGUGGCUAGACUGCC [G7A C13A C15A G29U C31A] | 0.4
21 | GGCAGAACUAAACACAGCGUUGCAAAGUUGGUGUGGCUAGACUGCC [G7A C10A G21U G29U C31G] | 0.04
22 | GGCAGAACUCAAAACAUCGUGGCAUAGUGGCUGAGGCUAGACUGCC [G7A C13A G17U A25U U34A] | 0.07
23 | GGCAGAACUUAACACAGCGUGGCAAAGGGGCUGUGGCUAGUCUGAC [G7A C10U U28G A41U C45A] | 0
24 | GGCAGAACUCAACACAGCGUGGCGAAGUGGAUGUGGCUAGACUGCC [G7A A24G C31A] | 0.15
25 | GGCAGAACUCAAAACAGCGUGGCAAAGUGGCUGUGGCGAGACUGCC [G7A C13A U38G] | 0.03
26 | GGCAGAACUGAACAAAGCUGGGCAAAGUGGCUGUGGCUAGACUGCC [G7A C10G C15A G19U U20G] | 0
27 | GGCAGAAAUCAACACAGCAUGGCAAAGUGGCUGUGGCUAGACUGCC [G7A C8A G19A] | 0.34
28 | GGCAGAACUGAACACAGCGUGGUAAAGUGGCUGUGGCUAGACUGCC [G7A C10G C23U] | 0.03
29 | GGCAGAAAUCAACGCAGCGGGGCAAAGUGGCUGUGGCUAGACUGCC [G7A C8A A14G U20G] | 0.21
30 | GGCAGAACUGAACACAGCGUGGCAAAGUGGCUGUGGAUAGAUUCCC [G7A C10G C37A C42U G44C] | 0.03
31 | GGCAGAACUUAACACAGCGUGGCAAAGUGGCUGUGCCUAGACUGCC [G7A C10U G36C] | 0.05
32 | GGCAGAAAUCAACACAGCGUGGCAUAGUGGCUGUGGCUAUACUGCC [G7A C8A A25U G40U] | 0.25
33 | GGCAGAACUUAACACAGCGGUGCCAAGUGGCUGUGUCUAGACUGCC [G7A C10U U20G G21U A24C G36U] | 0.02
34 | GGCAGAACUUAACACAGCGUAGCAACGUGGCUGUGGCUAGACUGCC [G7A C10U G21A A26C] | 0.02
35 | GGCAGAAUUCAACAAAGUGUGGCAAAGUGGCUGUGGCUAGAAUGCC [G7A C8U C15A C18U C42A] | 0.43
36 | GGCAGAACUCAAAACACAGUGGCAAAGUGGCUGUGGCUAGACUGCC [G7A C13A G17C C18A] | 0.05
37 | GGCAGAACUCAAAACAGCGUGGCUAAGUGGCUGUGGCUAGACUGCC [G7A C13A A24U] | 0.13
38 | GGCAGAACUCAACACAGCGUGGCAAGGUUGCUAUUGCUAGACUGCC [G7A A26G G29U G33A G35U] | 0.31

Row | Variant | self-cleavage
39 | GGCAGAACUCAAGACAGCGUGGCAAAGUGGCUGUGACUAGACUGCC [G7A C13G G36A] | 0.38
40 | GGCAGAAGUCAACACAGCGUGGCAAAGUGGCUGUGGCUAGACUGCU [G7A C8G C46U] | 0.12
41 | GGCAGAACUAAACACAGCCUGGCAAAGUGGCUGUGGCUAGACUGCC [G7A C10A G19C] | 0.02
42 | GGCAGAAAUCAACACAGCGUGGCAAAGUGGCUGUGGCUAUACUGCC [G7A C8A G40U] | 0.15
43 | GGCAGAACUCAACACGGCGUGGCAAAGUGACUGUGGCUGCACUGAC [G7A A16G G30A A39G G40C C45A] | 0.01
44 | GGCAGAACUCAACACAGCGUGGCCAAGUGGCUGUGGCGAGACUGCA [G7A A24C U38G C46A] | 0.06
45 | GGCAGAACUAAACACAGCGUGGCAAAGCGGCUGUGGCUAGUCUGCC [G7A C10A U28C A41U] | 0.01
46 | GGCAGAACUCAACACAGCGUGGCAAGGUAGCUGUGGCUAGACUGCC [G7A A26G G29A] | 0.2
47 | GGCAGAAUGCAGCACAGCGUGGCAAAGUGGAUGUGUCUAGACUGCC [G7A C8U U9G A12G C31A G36U] | 0.21
48 | GGCAGAACUCAACACAGCGUGGCGCAUUGGCUGUGGCUAAACUGCC [G7A A24G A25C G27U G40A] | 0.06
49 | GGCAGAACUCAACACAGCGUGGCCAAGUGGCUCUGGCUAGACUGCC [G7A A24C G33C] | 0.05
50 | GGCAGAACUGAACACAGAGUGGCAAAGUGGACGUGGCUAGACUGCC [G7A C10G C18A C31A U32C] | 0.02
51 | GGCAGAACUCAAGACAUCGUGGCAAAGUGGCUGUGGCUAGACUGCU [G7A C13G G17U C46U] | 0.1
52 | GGCAGAACUAAACACAGCGUGACAAAGUGGCUGUGGCUAGACUGCC [G7A C10A G22A] | 0.03
53 | GGCAGAAAUCAACUCAGCGUGGCAAAGUGGCUGUGGCUAGGCUGCC [G7A C8A A14U A41G] | 0.24
54 | GGCAGAACUGAACACUGCGUGGCAAUGUGGCUUUGGCUAGACUGCC [G7A C10G A16U A26U G33U] | 0.01
55 | GGCAGAAUUCAACACAACGUGGCAAAGUGGCUGUCGCUAGACUGCC [G7A C8U G17A G35C] | 0.13
56 | GGCAGAAUUCAACACAGCGUGGCAAAGUGGCUGUGGCUAAACUGCC [G7A C8U G40A] | 0.23
